From the RNAGym collection of RNA variant scans (doi:10.7554/elife.90254)
The source gives no read counts; variants with many changes may rest on few reads.

B1: LINE1-mini (parent)
chain: GGCAGAGCUCAACACAGCGUGGCAAAGUGGCUGUGGCUAGACUGCC

Variants of: B1
Test: self-cleavage, relative activity (ratio to wild type); higher = more cleavage; in vitro, sequencing; the parent is a self-cleaving ribozyme

Variant | self-cleavage
GGCACAGCUCAACACAGCGUGGCAAAGUGUCCGUGGCUAGACUGCC [G5C G30U U32C] | 0.03
GGCACAGCUCAACACAGCGUGGCAAAGUGUCGUGGGCUAGACUGCC [G5C G30U U32G G33U U34G] | 0.05
GGCACAGCUCAACACAGCGUGGCAAAGUGGCUAUGGCUAUACUGCC [G5C G33A G40U] | 0.03
GGCACAGCUCAACACAGCGUGGCAAAGUGGCUAAGGCUAGACUGCA [G5C G33A U34A C46A] | 0.11
GGCACAGCUCAACACAGCGUGGCAAAGUGGCUCUGGCUAGACUGCA [G5C G33C C46A] | 0.03
GGCACAGCUCAACACAGCGUGGCAAAGUGGCUCUGGCAAGACUGCC [G5C G33C U38A] | 0.01
GGCACAGCUCAACACAGCGUGGCAAAGUGGCUCUGGCUAGACAGCC [G5C G33C U43A] | 0.04
GGCACAGCUCAACACAGCGUGGCAAAGUGGCUUUAGCUAGACUGCC [G5C G33U G35A] | 0.08
GGCACAGCUCAACACAGCGUGGCAAAGUGGCUGUCGAUAGACUGCC [G5C G35C C37A] | 0.02
GGCACAGCUCAACACAGCGUGGCAAAGUGGCUGUUGCUAGACCGCC [G5C G35U U43C] | 0.07
GGCACAGCUCAACACAGCGUGGCAAAGUGGCUGUGAAUAGACUGCC [G5C G36A C37A] | 0.04
GGCACAGCUCAACACAGCGUGGCAAAGUGGCUGUGCCUCGACUGCC [G5C G36C A39C] | 0.09
GGCACAGCUCAACACAGCGUGGCAAAGUGGCUGUGCCUUGACUGCC [G5C G36C A39U] | 0.06
GGCACAGCUCAACACAGCGUGGCAAAGUGGCUGUGUCUGGACUGCC [G5C G36U A39G] | 0.02
GGCACAGCUCAACACAGCGUGGCAAAGUGGCUGUGUCUAGACUGUC [G5C G36U C45U] | 0.08
GGCACAGCUCAACACAGCGUGGCAAAGUGGCUGUGGCUACAGUGCC [G5C G40C C42G] | 0.03
GGCACAGCACGACACAGCGUGGCAAAGUGGCAUUGGCUAGACGGCC [G5C U9A A11G U32A G33U U43G] | 0.02
GGCACAGCACUAAACAGCGUGGCAAAGUGACUGUGGCUAGACUGCG [G5C U9A A11U C13A G30A C46G] | 0.02
GGCACAGCACAACACAGAGUGGCAAAGUGGCUGUGGCUAGACUGCC [G5C U9A C18A] | 0.03

Variant | self-cleavage
GGCACAGCACAACACAGCGUUGCAAAGUGGCUUUUGCUAGACUGCC [G5C U9A G21U G33U G35U] | 0.03
GGCACAGCACAACACAGCGUGGCAAAGUCACUAUGGCUAGAGUGCC [G5C U9A G29C G30A G33A C42G] | 0.2
GGCACAGCCCAACAGAGCGCGGCAAAGAGGCUGUGGCUAGACUGCC [G5C U9C C15G U20C U28A] | 0.02
GGCACAGCCCAACACAGCGUGGGAAAGUGGCUGUAGCUUUACUGCC [G5C U9C C23G G35A A39U G40U] | 0.02
GGCACAGCCCAACACAACGUGGCAAAGUGGCUGUGGCUAGACUGCC [G5C U9C G17A] | 0.03
GGCACAGCGCAUCACAGCGAGGCAAAGUGGCUGUGGCUAGACUGCC [G5C U9G A12U U20A] | 0.01
GGCACAGCGCAACGCAGCGUGACAAAGUGUCUGUGGCUAGACUGCC [G5C U9G A14G G22A G30U] | 0.02
GGCACAGCGCAACACAGCUUGGCAAUGUGGCUGUGGCUAGACUGCC [G5C U9G G19U A26U] | 0.05
GGCACAGCGCAACACAGCGUGUCAAAGUGGCUGUGGCUAGACUGCC [G5C U9G G22U] | 0.05
GGCACAGCGCAACACAGCGUGUCAAAGUGGCUGUGGCUAGAUUGCC [G5C U9G G22U C42U] | 0.01
GGCACAGCGCAACACAGCGUGGCAAAAUGGCUGUGGCUAGACUGCC [G5C U9G G27A] | 0.03
GGCACAGCGCAACACAGCGUGGCAAAGUCGCUCUGGCUGGACUGCC [G5C U9G G29C G33C A39G] | 0.02
GGCACAGCGCAACACAGCGUGGCAAAGUUGCUGUGGCUAGACUGCG [G5C U9G G29U C46G] | 0.08
GGCACAGCGCAACACAGCGCGGCAAAGUGGCUGUGGCUAGACUGCA [G5C U9G U20C C46A] | 0.03
GGCACAGCUCAACACAGCGAGGCAAAGUGGCUAUGGCUGGACUGCC [G5C U20A G33A A39G] | 0.03
GGCACAGCUCAACACAGCGCGGCAAAAUGGCUGUGGCUAGACUUCC [G5C U20C G27A G44U] | 0.03
GGCACAGCUCAACACAGCGGCGCAAAGUGGCUGUGGCUAGACUGCC [G5C U20G G21C] | 0.03
GGCACAGCUCAACACAGCGUGGCAAAGAGGCUAUGGCUAGACUGCC [G5C U28A G33A] | 0.05
GGCACAGCUCAACACAGCGUGGCAAAGCGGCUGUGCUUAGACUGCC [G5C U28C G36C C37U] | 0.01

Variant | self-cleavage
GGCACAGCUCAACACAGCGUGGCAAAGGGGCUGUGGCUAGACUGAC [G5C U28G C45A] | 0.01
GGCACAGCUCAACACAGCGUGGCAAAGGGGCGGUGGCUAGACUGCU [G5C U28G U32G C46U] | 0.03
GGCACAGCUCAACACAGCGUGGCAAAGUGGCAGGGGCUAGAUUGCC [G5C U32A U34G C42U] | 0.04
GGCACAGCUCAACACAGCGUGGCAAAGUGGCCUUGGCUAGACUGCC [G5C U32C G33U] | 0.01
GGCACAGCUCAACACAGCGUGGCAAAGUGGCGUUGGCUAGAAUGCC [G5C U32G G33U C42A] | 0.03
GGCACAGCUCAACACAGCGUGGCAAAGUGGCGGGUGCUAGACUGCC [G5C U32G U34G G35U] | 0.02
GGCACAGCUCAACACAGCGUGGCAAAGUGGCUGCGGCUAUACUGCC [G5C U34C G40U] | 0.29
GGCACAGCUCAACACAGCGUGGCAAAGUGGCUGUGGCUAGACAGCG [G5C U43A C46G] | 0.04
GGCAUCGCUCAACCCGGCGUGGCAAAGUGCGUGUGUCUAGAUUGCC [G5U A6C A14C A16G G30C C31G G36U C42U] | 0.02
GGCAUCGCUCAACACCGCGUGGAAAAGUUGCUGUGGCUAGACUGCC [G5U A6C A16C C23A G29U] | 0.04
GGCAUCGCUCAACACCUCGUGGCAAAGUGGCUGUGGCUAGACUGCC [G5U A6C A16C G17U] | 0.09
GGCAUCGCUCAAGACAGCAUGGCAAAGUGGCUGUGGCUAGACUGCC [G5U A6C C13G G19A] | 0.13
GGCAUCGCUCAACACAGGGUGGCAAACUGGCUGUUGCUAGACUGCC [G5U A6C C18G G27C G35U] | 0.04
GGCAUCGCUCAACACAGCCUGGCAAAGUGGCUGUGGCUAGAAUGCC [G5U A6C G19C C42A] | 0.09
GGCAUGGGUCAACAAAGCGCGGCAAAGUUGCUGCGGCUAGACUGCC [G5U A6G C8G C15A U20C G29U U34C] | 0.04
GGCAUGGGUCAACACAGCGUGCCAAAGUGGCUGUGGCUAGACUGCC [G5U A6G C8G G22C] | 0.02
GGCAUGGCUAAACACAGCGUGGCAAAGUGGCUGUGGCUAGACGGCC [G5U A6G C10A U43G] | 0.02
GGCAUGGCUCAAGACAGCGUGGCAAAGUGGCCGCGGCUAGACUGCC [G5U A6G C13G U32C U34C] | 0.21
